Reference: patent US5225399A, “Antimicrobial amphiphilic peptides” (The Children's Hospital of Philadelphia, priority 1991, dated 1993)
Values after ≈ are worked out from the molar mass of the structure shown. Not every detail of the peptide structures is certain; ends, links or a residue may be inferred. Bridge positions count the residues as written; N and C are the ends. Peptide text beside a SMILES is read from it.

Experiments:
Experiment in all cases: Antibacterial assay, microtiter broth dilution MIC
Assay type in all cases: cell-based
[1] = tested on: E. coli ATCC 25922; conditions: E. coli ATCC 25922, Mueller Hinton broth, 16-20 hours at 37° C., lowest concentration producing a clear well
[2] = tested on: S. aureus ATCC 25923; conditions: S. aureus ATCC 25923, Mueller Hinton broth, 16-20 hours at 37° C., lowest concentration producing a clear well
[3] = tested on: P. aeruginosa ATCC 27853; conditions: P. aeruginosa ATCC 27853, Mueller Hinton broth, 16-20 hours at 37° C., lowest concentration producing a clear well

Row | Structure (SMILES) | MIC E. coli [1] | MIC S. aureus [2] [µg/mL] | MIC P. aeruginosa [3] [µg/mL]
1 | CC[C@H](C)[C@H](NC(=O)[C@H](CCSC)NC(=O)[C@H](C)NC(=O)[C@@H]1CCCN1C(=O)[C@@H](NC(=O)[C@@H](NC(=O)[C@H](CCCCN)NC(=O)[C@@H](NC(=O)[C@H](CC(C)C)NC(=O)CNC(=O)CNC(=O)[C@H](CC(C)C)NC(=O)[C@@H](N)Cc1ccccc1)[C@@H](C)CC)[C@@H](C)CC)C(C)C)C(=O)N[C@H]1CSSC[C@@H](C(=O)O)NC(=O)[C@H](CCCCN)NC(=O)[C@H](CCCCN)NC(=O)[C@H]([C@@H](C)O)NC(=O)[C@H](C(C)C)NC(=O)[C@H](C)NC1=O [(1), (SEQ ID NO:1)-OH] (H-FLGGLIKIVPAMICAVTKKC-OH; disulfide 14-20) | 64 µg/mL (≈ 30.4 µM) | 4 (≈ 1.9 µM) | 128 (≈ 60.8 µM)
2 | CC[C@H](C)[C@H](NC(=O)[C@H](CCSC)NC(=O)[C@H](C)NC(=O)[C@@H]1CCCN1C(=O)[C@@H](NC(=O)[C@@H](NC(=O)[C@H](CCCCN)NC(=O)[C@@H](NC(=O)[C@H](CC(C)C)NC(=O)CNC(=O)CNC(=O)[C@H](CC(C)C)NC(=O)[C@@H](N)Cc1ccccc1)[C@@H](C)CC)[C@@H](C)CC)C(C)C)C(=O)N[C@H]1CSSC[C@@H](C(N)=O)NC(=O)[C@H](CCCCN)NC(=O)[C@H](CCCCN)NC(=O)[C@H]([C@@H](C)O)NC(=O)[C@H](C(C)C)NC(=O)[C@H](C)NC1=O [(1a), (SEQ ID NO:1)-NH2] (H-FLGGLIKIVPAMICAVTKKC-NH2; disulfide 14-20) | 32 µg/mL (≈ 15.2 µM) | 4 (≈ 1.9 µM) | 128 (≈ 60.9 µM)
3 | CC[C@H](C)[C@H](NC(=O)[C@H](CCSC)NC(=O)[C@H](C)NC(=O)[C@@H]1CCCN1C(=O)[C@@H](NC(=O)[C@@H](NC(=O)[C@H](CCCCN)NC(=O)[C@@H](NC(=O)[C@H](CC(C)C)NC(=O)CNC(=O)CNC(=O)[C@H](CC(C)C)NC(=O)CN)[C@@H](C)CC)[C@@H](C)CC)C(C)C)C(=O)N[C@H]1CSSC[C@@H](C(=O)O)NC(=O)[C@H](CCCCN)NC(=O)[C@H](CCCCN)NC(=O)[C@H]([C@@H](C)O)NC(=O)[C@H](C(C)C)NC(=O)[C@H](C)NC1=O [(2), (SEQ ID NO:2)-OH] (H-GLGGLIKIVPAMICAVTKKC-OH; disulfide 14-20) | 64 µg/mL (≈ 31.8 µM) | 32 (≈ 15.9 µM) | 256 (≈ 127 µM)
4 | CC[C@H](C)[C@H](NC(=O)[C@H](CCSC)NC(=O)[C@H](C)NC(=O)[C@@H]1CCCN1C(=O)[C@@H](NC(=O)[C@@H](NC(=O)[C@H](CCCCN)NC(=O)[C@@H](NC(=O)[C@H](CC(C)C)NC(=O)[C@H](CCCCN)NC(=O)CNC(=O)[C@H](CC(C)C)NC(=O)CN)[C@@H](C)CC)[C@@H](C)CC)C(C)C)C(=O)N[C@H]1CSSC[C@@H](C(=O)O)NC(=O)[C@H](CCCCN)NC(=O)[C@H](CCCCN)NC(=O)[C@H]([C@@H](C)O)NC(=O)[C@H](C(C)C)NC(=O)[C@H](C)NC1=O [(3), (SEQ ID NO:3)-OH] (H-GLGKLIKIVPAMICAVTKKC-OH; disulfide 14-20) | 32 µg/mL (≈ 15.3 µM) | 32 (≈ 15.3 µM) | 256 (≈ 123 µM)
5 | CC[C@H](C)[C@H](NC(=O)[C@H](CCSC)NC(=O)[C@H](C)NC(=O)CNC(=O)[C@@H](NC(=O)[C@@H](NC(=O)[C@H](CCCCN)NC(=O)[C@@H](NC(=O)[C@H](CC(C)C)NC(=O)CNC(=O)CNC(=O)[C@H](CC(C)C)NC(=O)[C@@H](N)Cc1ccccc1)[C@@H](C)CC)[C@@H](C)CC)C(C)C)C(=O)N[C@H]1CSSC[C@@H](C(=O)O)NC(=O)[C@H](CCCCN)NC(=O)[C@H](CCCCN)NC(=O)[C@H]([C@@H](C)O)NC(=O)[C@H](C(C)C)NC(=O)[C@H](C)NC1=O [(4), (SEQ ID NO:4)-OH] (H-FLGGLIKIVGAMICAVTKKC-OH; disulfide 14-20) | 128 µg/mL (≈ 62 µM) | 4 (≈ 1.94 µM) | > 256
6 | CC[C@H](C)[C@H](NC(=O)[C@H](CC(C)C)NC(=O)[C@H](C)NC(=O)[C@@H]1CCCN1C(=O)[C@@H](NC(=O)[C@@H](NC(=O)[C@H](CCCCN)NC(=O)[C@@H](NC(=O)[C@H](CC(C)C)NC(=O)CNC(=O)CNC(=O)[C@H](CC(C)C)NC(=O)[C@@H](N)Cc1ccccc1)[C@@H](C)CC)[C@@H](C)CC)C(C)C)C(=O)N[C@H]1CSSC[C@@H](C(=O)O)NC(=O)[C@H](CCCCN)NC(=O)[C@H](CCCCN)NC(=O)[C@H]([C@@H](C)O)NC(=O)[C@H](C(C)C)NC(=O)[C@H](C)NC1=O [(5), (SEQ ID NO:5)-OH] (H-FLGGLIKIVPALICAVTKKC-OH; disulfide 14-20) | 32,64 μg/ml | 4 (≈ 1.92 µM) | 128 (≈ 61.4 µM)
7 | CC[C@H](C)[C@H](NC(=O)[C@H](C)NC(=O)[C@@H]1CCCN1C(=O)[C@@H](NC(=O)[C@@H](NC(=O)[C@H](CCCCN)NC(=O)[C@@H](NC(=O)[C@H](CC(C)C)NC(=O)CNC(=O)CNC(=O)[C@H](CC(C)C)NC(=O)[C@@H](N)Cc1ccccc1)[C@@H](C)CC)[C@@H](C)CC)C(C)C)C(=O)N[C@H](C(=O)N[C@H]1CSSC[C@@H](C(=O)O)NC(=O)[C@H](CCCCN)NC(=O)[C@H](CCCCN)NC(=O)[C@H]([C@@H](C)O)NC(=O)[C@H](C(C)C)NC(=O)[C@H](C)NC1=O)[C@@H](C)CC [(6), (SEQ ID NO:6)-OH] (H-FLGGLIKIVPAIICAVTKKC-OH; disulfide 14-20) | 32,64 μg/ml | 16 (≈ 7.67 µM) | 128 (≈ 61.4 µM)
